PubChem BioAssay AID686978 (National Center for Advancing Translational Sciences (NCATS), 2013)
The whole screen tested about 420,000 compounds, of which about 64,000 (15%) were called active. Inconclusive means that the source gave no clear call. Such entries were picked first, then a sample of the others. Calls come from the whole dose curve; as a rule, active = well fitted inhibition curve with a large enough effect; inconclusive = small, poorly fitted or top-dose-only effect; inactive = flat fitted curve, though single readings scatter. No potency is given beside an inconclusive call; the fits are too rough.

Test: qHTS for Inhibitors of human tyrosyl-DNA phosphodiesterase 1 (TDP1): qHTS in cells in absence of CPT; note: nearly all actives have a fitted effect of over 55% in size
Settings: DT40 Tdp1-/- hTDP1 cells, no CPT, ATP luminescence, 48 h; activity change, negative = growth inhibition: at 46.2 µM (top of the series) unless noted
Procedure, shortened: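 Growth kinetics read by CellTiter-Glo luminescence after ≥48 hr at 37 °C. Cells: DT40 Tdp1-/- stably carrying human TDP1, 400 per well, compound exposure in the absence of CPT (DMSO vehicle).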
% is set by controls: 0 for no effect and ±100 for the full control effect; potency is the fitted concentration of half-maximal effect; tags give direction and shape of the fitted curve.

SMILES | Potency | activity change, negative = growth inhibition
O=c1[nH]c(N/N=C\c2ccc(F)cc2)nc2ccccc12 | inconclusive [inhibitor, single point] | –
Cc1ccc(NC(=O)c2ccc(Cl)nc2)cc1S(=O)(=O)N1CCOCC1 | active: 8.2 µM | –
Nc1nc(SCC(=O)NC2CCCCC2)n[nH]1 | – | inactive: -1.05%
O=C(N/N=C/c1sc(N2CCOCC2)nc1-c1ccccc1)c1ccc(O)cc1 | inconclusive [inhibitor, single point] | –
Nc1c(C(=O)NCCN2CCOCC2)c2nc3ccccc3nc2n1-c1cccc(F)c1 | inconclusive [inhibitor, partial curve] | –
O=[N+]([O-])c1ccc(Oc2ccc(-c3nnco3)cc2)c(Cl)c1 | – | inactive: -26.8%
CSc1nc(C)c(CCOCc2ccc(F)cc2)c(=O)[nH]1 | inconclusive [inhibitor, single point] | –
CC12CC3CC(C)(C1)CC(C(=O)N1CCN(C(=O)c4ccco4)CC1)(C3)C2 | inconclusive [inhibitor, single point] | –
CCCN1CNc2c(c(=O)[nH]c(=S)n2CCc2cccc(C)c2C)C1 | active: 12.6 µM | –
C/C(=N\NC(=O)CSc1nc2ccccc2c(=O)n1-c1ccccc1C)c1cccs1 | inconclusive [inhibitor, partial curve, poor fit] | –
CCc1ccc(C2=NN(C(=O)CCC(=O)O)C(c3cccs3)C2)cc1 (configuration not stated) | – | inactive: 9.25%
COc1ccc(OC)c(S(=O)(=O)Nc2cc3c4c(c2)CC(=O)N4CCC3)c1 | active: 14.6 µM | –
COc1ccc(S(=O)(=O)N(C)C)cc1NS(=O)(=O)c1ccc(F)c(F)c1F | – | inconclusive: -30.9% [inhibitor]
Cc1nnsc1C(=O)NC1CCCc2c1cnn2-c1ccc(F)cc1F (configuration not stated) | active: 5.8 µM | –
O=C(NCCCN1CCN(c2ccc(F)cc2)CC1)NC12CC3CC(CC(C3)C1)C2 | active: 20.6 µM | –
CCOC(=O)C1CCCN(c2ncnc3c2cnn3-c2cccc(C)c2)C1 (configuration not stated) | – | inactive: -9.92%
CC1CCCCN1C(=O)COC(=O)c1ccc(=O)n(Cc2ccccc2)n1 (configuration not stated) | – | inactive: -11.4%
CNC(=S)N1N=C(c2ccc(C)cc2)CC1c1cc(OC)ccc1OC (configuration not stated) | active: 9.2 µM | –
Cc1ccc(NC(=O)CSc2nc3n[nH]c(C)c3c(=N)n2-c2cccc(C)c2)cc1 | active: 3.26 µM | –
C=C1[C@H](C)CN(S(=O)(=O)C(C)(C)C)[C@H]1CCO | – | inactive: 1.36%
Cc1c(C(=O)NN)nc2ccccn12 | – | inactive: -2.67%
CCOC(=O)N1CCc2c(sc3c2c(=O)n(CCc2ccccc2)c(=O)n3Cc2c(F)cccc2Cl)C1 | active: 25.9 µM | –
